# Experimental data published in the RNAGym collection of RNA variant scans (doi:10.1073/pnas.2313332121).
# This sample is rich in variants without activity.
# B1: TPR 5TU (parent)
# chain: GGAUCUUCUCGAUCUAACAAAAAAGACAAAUCUGCCACAAAGCUUGAGAGCAUCUUCGGAUGCAGAGGCGGCAGCCUUCGGUGGCGCGAUAGCGCCAACGUUCUCAACUAUGACACGCAAAACGCGUGCUCCGUUGAAUGGAGUUUAUCAUG
# Variants of: B1
# Experiment: polymerase ribozyme fitness, log enrichment relative to wild type (log ratio); higher = more active; in vitro selection for triplet polymerase activity
# In short: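 The heterodimeric triplet polymerase ribozyme's subunits were each mutagenized into PCR-built libraries and transcribed. Every library was selected once, in triplicate, by annealing with a biotinylated primer, the partner subunit and triplets, incubating frozen at −7 °C, gel-excising extended constructs, capturing on streptavidin beads and running RT-PCR. Input and output libraries were Illumina-sequenced, with genotypes kept only at ≥10 input reads and ≥1 read per output. Fitness, from inverse-variance-weighted replicate averages, is the base-2 logarithm of genotype enrichment over wild-type enrichment.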
row,Variant,polymerase ribozyme fitness (log ratio)
1,GGAUCUUCUCGAUCUAACAAAAAAGACAAAUCUGCCACAAAGCUUGAGAGCAUCUUCGGAUACAGAGGAGGCAGCCUUCGGUGGCGCGAUAGCGCCAACGUUCUCAACUAUGACACGCAAAACGCGUGCUCCGUUGAAUGGAGUUUAUCAUG [G62A C69A],≤ -4.2
2,GGAUCUUCUCGAUCUAACAAAAAAGACAAAUCUGCCACAAAGCUUGAGAGCAUCUUCGGAUACAGAGGCGGCAGUCUUCGGUGGCGCGAUAGCGCCAACGUUCUCAACUAUGACACGCAAAACGCGUGCUCCGUUGAAUGGAGUUUAUCAUG [G62A C75U],-0.822
3,GGAUCUUCUCGAUCUAACAAAAAAGACAAAUCUGCCACAAAGCUUGAGAGCAUCUUCGGAUACAGAGGCGGCAGCAUUAGGUGGCGCGAUAGCGCAAACGUUCUCAACUAUGACACGCAAAACGCGUGCUCCGUUGAAUGGAGUUUAUCAUG [G62A C76A C79A C96A],≤ -4.2
4,GGAUCUUCUCGAUCUAACAAAAAAGACAAAUCUGCCACAAAGCUUGAGAGCAUCUUCGGAUACAGAGGCGGCAGCCUUUGGUGGCGCGAUGGCGCCAACGUUCUCAACUAUGACAUGUAAAACGCGUGCUCCGUUGAAUGGAGUUUAUCAUG [G62A C79U A91G C116U C118U],≤ -4.2
5,GGAUCUUCUCGAUCUAACAAAAAAGACAAAUCUGCCACAAAGCUUGAGAGCAUCUUCGGAUACAGAGGCGGCAGCCUUCGGUGGCGUGAUAGCGCCAACGUUCUCAACUAUGACACGCAGAACGCGUGCUCCGUUGAAUGGCGUUUAUCAUG [G62A C87U A120G A142C],-3.11
6,GGAUCUUCUCGAUCUAACAAAAAAGACAAAUCUGCCACAAAGCUUGAGAGCAUCUUCGGAUACAGAGGCGGCAGCCUUCGGUGGCGCGAUAGCGCCAACGUUCUCAACUAUGACAUGCAAAACGCGUGCUCCGUUGAAUGGAGUUUAUCAUG [G62A C116U],-0.0465
7,GGAUCUUCUCGAUCUAACAAAAAAGACAAAUCUGCCACAAAGCUUGAGAGCAUCUUCGGAUACAGAGGCGACAGCCUUCGGUGGCGCGAUAGCGCCAACGUUCUCAACUAUGACACGCAAAACCCGUGCUCCGUUGAAUGGAGUUUAUCAUG [G62A G71A G124C],≤ -4.2
8,GGAUCUUCUCGAUCUAACAAAAAAGACAAAUCUGCCACAAAGCUUGAGAGCAUCUUCGGAUACAGAGGCGGCAGCCUUCGUUGGCGCGAUAGCGACAACGUUCUCAACUAUGACACGCAAAACGCUUGCUCCGUUGAAUGGAGUUUAUCAUG [G62A G81U C95A G126U],0.493
9,GGAUCUUCUCGAUCUAACAAAAAAGACAAAUCUGCCACAAAGCUUGAGAGCAUCUUCGGAUACAGAGGCGGCAGCCUUCGGUGACGCGAUAGCGCUAACGUUCUCAACUAUGACGCGCAAAACGCGUGCUCCGUUGAAUGGAGUUUAUCAUG [G62A G84A C96U A115G],≤ -4.2
10,GGAUCUUCUCGAUCUAACAAAAAAGACAAAUCUGCCACAAAGCUUGAGAGCAUCUUCGGAUACAGAGGCGGCAGCCUUCGGUGGCACGAUAGCGCCAACGUUCUCAACUAUGACACGCAAACCGCGUGCUCCGUUGAAUGGAGUUUAUCAUG [G62A G86A A122C],-1.02
11,GGAUCUUCUCGAUCUAACAAAAAAGACAAAUCUGCCACAAAGCUUGAGAGCAUCUUCGGAUACAGAGGCGGCAGCCAUCGGUGGAGCGAUAGCGCCAACGUUCUCAACUAUGACACGCAAAACGCGUGCUCCGUUGAAUGGAGUUUAUCAUG [G62A U77A C85A],≤ -4.2
12,GGAUCUUCUCGAUCUAACAAAAAAGACAAAUCUGCCACAAAGCUUGAGAGCAUCUUCGGAUCCAGGGGCGGCAGCCUUCGGUGGCGCGAUAGCGCCAACGUUCUCAACUAUGACACGCAAAACGCGUGCUCCGUUGAAUGGAGUUUAUCAUG [G62C A66G],≤ -4.2
13,GGAUCUUCUCGAUCUAACAAAAAAGACAAAUCUGCCACAAAGCUUGAGAGCAUCUUCGGAUCCAGAGGCGGCAGCCUUCGGUGGCGCGAUAGCGCCAACGUUCUCCACUAUGACACGCAAAACGCGUGCUCCGUUGAAUGGAUUUUAUCAUG [G62C A106C G143U],≤ -4.2
14,GGAUCUUCUCGAUCUAACAAAAAAGACAAAUCUGCCACAAAGCUUGAGAGCAUCUUCGGAUCCAGAGGCGGCAGCCUUCGGUGGCGCGAUAGCGCCAACGUUCUCAGCUAUGACACGUAAAACGCGUGCUCCGUUGAAUGGAGUUUAUCAUG [G62C A107G C118U],≤ -4.2
15,GGAUCUUCUCGAUCUAACAAAAAAGACAAAUCUGCCACAAAGCUUGAGAGCAUCUUCGGAUCCAGAGGCGGCAGCCUUCGGUGGCGCGAUAGCGCCAACGUUCUCAACUAUGACACGCAGAACGCGUGCUCCGUUGAAUGGAGUUUAUCAUG [G62C A120G],-0.94
16,GGAUCUUCUCGAUCUAACAAAAAAGACAAAUCUGCCACAAAGCUUGAGAGCAUCUUCGGAUCCAGAGGUGGCAGCCUUCGGUGGCGCGAUAACGCCAACGUUCUCAACUAUGACACGCAAAACGCGUACUCCGUUGAAUGGAGUUUAUCAUG [G62C C69U G92A G128A],≤ -4.2
17,GGAUCUUCUCGAUCUAACAAAAAAGACAAAUCUGCCACAAAGCUUGAGAGCAUCUUCGGAUCCAGAGGCGGAAGCCUUCGGUGGCGCGAUGGCGCCAGCGUUCUCAACUAUGACACGCAAAAUGCGUGCUCCGUUGAAUGGAGUUUAUCAUG [G62C C72A A91G A98G C123U],≤ -4.2
18,GGAUCUUCUCGAUCUAACAAAAAAGACAAAUCUGCCACAAAGCUUGAGAGCAUCUUCGGAUCCAGAGGCGGCAGCAUUCGGUGGCGCGAUAGCGCCAACGUUCUCAACUAUGACACGCAAAACGCGUGCUCCGUUGAAUGGAGUUUAUCAUG [G62C C76A],≤ -4.2
19,GGAUCUUCUCGAUCUAACAAAAAAGACAAAUCUGCCACAAAGCUUGAGAGCAUCUUCGGAUCCAGAGGCGGCAGCAUUCGGCGGCGCGCUAGCUCCAACGUUCUCAACUAUGACAAGCACGACGCGUGCUCCGUUGAAUGGAUUUUAUCAUG [G62C C76A U82C A89C G94U C116A A120C A121G G143U],≤ -4.2

row,Variant,polymerase ribozyme fitness (log ratio)
1,GGAUCUUCUCGAUCUAACAAAAAAGACAAAUCUGCCACAAAGCUUGAGAGCAUCUUCGGAUCCAGAGGCGGCAGCUUUCGGUGGCGCGAUAGCGCCAACGUUCUCAACUAUGACACGCAAAACGCGUGCUCCGUUGAAGGGAGUUUAUCAUG [G62C C76U U139G],-3.09
2,GGAUCUUCUCGAUCUAACAAAAAAGACAAAUCUGCCACAAAGCUUGAGAGCAUCUUCGGAUCCAGAGGCGGCAGCCUUCGGUGGAGCGAUAGCGCCAACGUUCUCAACUAUGACACGCAAAACGCGUGCUCCGUUGAAUGGAGUUUAUCAUG [G62C C85A],-3.75
3,GGAUCUUCUCGAUCUAACAAAAAAGACAAAUCUGCCACAAAGCUUGAGAGCAUCUUCGGAUCCAGAGGCGGCAGCCUUCGGUGGCGCGAUAGCGUCAAUGUUCUCAACUAUGACACGCAAAACGCAUGCUCCGUUGAAUGGAGUUUAUCAUG [G62C C95U C99U G126A],≤ -4.2
4,GGAUCUUCUCGAUCUAACAAAAAAGACAAAUCUGCCACAAAGCUUGAGAGCAUCUUCGGAUCCAGAGGCGGCAGCCUUCGGUGGCGCGAUAGCGCUAACGUUCUCAACUAUGACACGCAAAACGCGUGAUCCGUUGAAUGGAGUUUAUCAUG [G62C C96U C129A],≤ -4.2
5,GGAUCUUCUCGAUCUAACAAAAAAGACAAAUCUGCCACAAAGCUUGAGAGCAUCUUCGGAUCCAGAGGCGGCAGCCUUCGGUGGCGCGAUAGCGCCAACGUUCUGAACUAUGACACGCAAAACGCGUGCUCCGUUGAAUGGAGUUUAUCAUG [G62C C105G],≤ -4.2
6,GGAUCUUCUCGAUCUAACAAAAAAGACAAAUCUGCCACAAAGCUUGAGAGCAUCUUCGGAUCCAGAGGCGGCAGCCUUCGGUGGCGCGAUAGCGCCAACGUUCUCAACUAUGACACGCAAAAGGCGUACUCCGUUGAAUGGAGUCUAUCAUG [G62C C123G G128A U145C],≤ -4.2
7,GGAUCUUCUCGAUCUAACAAAAAAGACAAAUCUGCCACAAAGCUUGAGAGCAUCUUCGGAUCCAGACGCGGCAGCCUUCGAUGGCGCGAUAGCGCCAACGUUCUCAACUAUGACACGCAAAACGCGUGCUCCGUUGAAUGGAAUUUAUCAUG [G62C G67C G81A G143A],≤ -4.2
8,GGAUCUUCUCGAUCUAACAAAAAAGACAAAUCUGCCACAAAGCUUGAGAGCAUCUUCGGAUCCAGAGACGGCAGCCUUCGGUCGCGCGAUAGCGCCAACGUUCUCAACUAUGACACGCAAAACGCAUGCUCCGUUGAAUGGAGUUUGUCAUG [G62C G68A G83C G126A A147G],≤ -4.2
9,GGAUCUUCUCGAUCUAACAAAAAAGACAAAUCUGCCACAAAGCUUGAGAGCAUCUUCGGAUCCAGAGACGGCAGCCUUCGGUGGCGCGAUAGCGCCAACGUUCUCAACUAUGACACGCAAAACGCGUACUCCGUUGAAUGGAGUUUAUCAUG [G62C G68A G128A],≤ -4.2
10,GGAUCUUCUCGAUCUAACAAAAAAGACAAAUCUGCCACAAAGCUUGAGAGCAUCUUCGGAUCCAGAGCCGGCAGCCUUCGGUGGCCAGGUAGCGCCAACGUUCUCAACUAUGACACGCAAAACGCGUGCUCCGUUGAAUGGAGUUUAUCAUG [G62C G68C G86C C87A A89G],≤ -4.2
11,GGAUCUUCUCGAUCUAACAAAAAAGACAAAUCUGCCACAAAGCUUGAGAGCAUCUUCGGAUCCAGAGUCGGCAGCCUUCGGUGGCGCGGUAGCGCCAACGUUCUCAAAUAUGUCACGCAAAACGCGUGCUCCGUUGAAUGGAGUUUAUCAUG [G62C G68U A89G C108A A113U],≤ -4.2
12,GGAUCUUCUCGAUCUAACAAAAAAGACAAAUCUGCCACAAAGCUUGAGAGCAUCUUCGGAUCCAGAGUCGGCAGCCUUCGGUGGCGCGAUAGCGCCAACGUUCUCAACUAUGACACGCAUAACGCGUGCUCCGUUGAAUGUAGUUUAGCAUG [G62C G68U A120U G141U U148G],≤ -4.2
13,GGAUCUUCUCGAUCUAACAAAAAAGACAAAUCUGCCACAAAGCUUGAGAGCAUCUUCGGAUCCAGAGGCGGCAGCCUUCAGUGGUGCGAUAGCGCCAACGUUCGCAACUAUGACACGCAAAACGCGUGCUCCGUUGAAAGGACUUUAUCAUG [G62C G80A C85U U104G U139A G143C],≤ -4.2
14,GGAUCUUCUCGAUCUAACAAAAAAGACAAAUCUGCCACAAAGCUUGAGAGCAUCUUCGGAUCCAGAGGCGGCAGCCUUCCGUGGCCUGAUAGCGCCAACGUUCUCAACUAUGACACGCAAAACGCGUGCUCCGUUGAAUGGAGUUUAUCAUG [G62C G80C G86C C87U],≤ -4.2
15,GGAUCUUCUCGAUCUAACAAAAAAGACAAAUCUGCCACAAAGCUUGAGAGCAUCUUCGGAUCCAGAGGCGGCAGCCUUCUGUGGCGCGAUAGCGCCAACGUUCUCAACUAUGACACGCAAAACGCGUGCUCCGUUGAAUGGAGUUUAUCAUG [G62C G80U],≤ -4.2
16,GGAUCUUCUCGAUCUAACAAAAAAGACAAAUCUGCCACAAAGCUUGAGAGCAUCUUCGGAUCCAGAGGCGGCAGCCUUCUGUGGCGCGAUAGAGCCAACGUUCUCAACUAUGACACGCAAAGCGCGUGCUCCGUUGAAUGGAGUUUAUCAUG [G62C G80U C93A A122G],≤ -4.2
17,GGAUCUUCUCGAUCUAACAAAAAAGACAAAUCUGCCACAAAGCUUGAGAGCAUCUUCGGAUCCAGAGGCGGCAGCCUUCGAUGGCGCGAUUGCGCCAACGUUCUCAACUAUGUCACGCAAAACGUGUGCUCCGUUGAAUGGAGUUUAUCAUG [G62C G81A A91U A113U C125U],≤ -4.2
18,GGAUCUUCUCGAUCUAACAAAAAAGACAAAUCUGCCACAAAGCUUGAGAGCAUCUUCGGAUCCAGAGGCGGCAGCCUUCGCUGGCGCGAUAGCGCCAAGGUUCUCCACUAUGACACGCAAAACGCGUGCUCCGUUGAAUGGAGUUUAUCAUG [G62C G81C C99G A106C],≤ -4.2
19,GGAUCUUCUCGAUCUAACAAAAAAGACAAAUCUGCCACAAAGCUUGAGAGCAUCUUCGGAUCCAGAGGCGGCAGCCUUCGGUGGCGCAAUAGCGGCAACGUUCUCAACUAUGACACUCAAAGCGCGUGCUCCGUUGCAUGGAGUUUAUCAUG [G62C G88A C95G G117U A122G A137C],≤ -4.2
